Assay results reported in the RNAGym collection of RNA variant scans (doi:10.1101/gad.245936.114).
Variants at the floor of the assay are shown more often than the library holds them.

B1: tRNA (parent)
chain: CUCUCGGUAGCCAAGUUGGUUUAAGGCGCAAGACUUUAAUUUAUCACUACGAAAUCUUGAGAUCGGGCGUUCGACUCGCCCCCGGGAGAUUUUUUCCUCGAGCAA

Variants of: B1
Test: nonsense suppression (GFP-seq) (ratio to wild type); higher = more function; SUP4oc tRNA, yeast GFP reporter sort-seq
Outline: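 To measure nonsense suppression, tRNA variants from a library carrying ~3% random mutations were integrated into the yeast genome alongside RFP and a GFP ochre reporter under galactose control. Growth took place in raffinose/galactose medium supplemented with 80 mg/L adenine, followed by sorting into GFP/RFP bins and Illumina sequencing of each bin (phred ≥30). For each variant with ≥100 reads and ≥30 cells, the bin median GFP/RFP values were weighted by its estimated cell share per bin and referenced to the unmutated parent tRNA.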
CUCUCGGUAGCCAAGGUGGUUAAAGGCGCAAGACUUUAAUUUAUCACUACGAAAUCUUGAGAUCGGGCGUUCGACUCGCCCCCGGGAGAUUUUUUCCUCGAGCAA [U16G U22A] gave a nonsense suppression of 0.872.
CUCUCGGUAGCCAAGUAGGUUUAAGGAGCAAGACUUUAAUUUAUCACUACGAAAUCUUGAGAUCGGGCGUUCGACUCGCCCCCGGGAGAUUUUUUCCUCGAGCAA [U17A C27A] gave a nonsense suppression of at most 0.026.
For CUCUCGGUAGCCAAGGUGGUUUAAGGCGCAAGACUUUAAUUUAUCACUACGAAAUCUUGAGAUCGAGCGUUCGAUUCGCCCCCGGGAGAUUUUUUCCUCGAGCAA [U16G G66A C75U], the nonsense suppression was at most 0.026.
Work on CUCUCGGUAGCCAAGUAGGUUUAAGGCGCAAGAUUUUAAUUUAUCACUACGAAAUCUUGAGAUCGGGCGUUCGUCUCGCCCCCGGGAGAUUUUUUCCUCGAGCAA [U17A C34U A74U] yielded a nonsense suppression of at most 0.026.
For CUCUCGGUAGCCAAGGUGGUUGAAGGCGCAAGACUUUAAUUUAUCACUACGAAAUCUUGAGAUCGGGCGUUCGCCUCGCCCCCGGGAGAUUUUUUCCUCGAGCAA [U16G U22G A74C], the nonsense suppression was at most 0.026.
Work on CUCUCGGUAGCCAAGUAGGUUUAAGGCGCCAGACUUUAAUUUAUCACUACGAAAUCUUGAGAUCGGUCGUUCGACUCGCCCCCGGGAAAUUUUUUCCUCGAGCAA [U17A A30C G67U G88A] yielded a nonsense suppression of at most 0.026.
CUCUCGGUAGCCAAGUAGGUUUAAGGCGCAAGACUUUAAUUUAUCACUACGAAAUCUUGAGAUCGGGCGUUCGACUCGCCACCGGGAGAUUUUUUCCUCGAGCAA [U17A C81A] showed a nonsense suppression of at most 0.026.
For CUCUCGGUAGCCAAGGUGGUUUAAGGCGCAAGACUUUAAUUUAUCACUACGAAAACUUGAGAUCGGGCGUUCGACUCGCCCCCGGGAGAUUUUUUCCUCGAGCAA [U16G U55A], the nonsense suppression was at most 0.026.
For CUCUCGGUAGCCAAGGUGGUCUAAGGCGCAAGACUUUAAUUUAUCACUACGAAAUCUUGAGAUCGGGCGUUCGACUCACCCCCGGGAGAUUUUUUCCUCGAGCAA [U16G U21C G78A], the nonsense suppression was at most 0.026.
With CUCUCGGUAGCCAAGGUGGUUUAAGGCGCAAGACUUUAAUUUAUCACUACGAAAUCUUGAGAUCUGGCGUUCGACUCGCCCCCGGGAGAUUUUUUCCUCGAGCAA [U16G G65U] the nonsense suppression was at most 0.026.
CUCUCGGUAGCCAAGUAGGUUUAAGGCGCAAGACUUUAAUUUAUCACUACGAAGUCUUGAGAUCGGGCGUUCGACUCGCCCCCGUGAGAUUUUUUCCUCGAGCAA [U17A A54G G85U] gave a nonsense suppression of at most 0.026.
Variant CUCUCGGUAGCCAAGGUGGUUGAAGGGGCAAGAUGUUAAUUUAUCACUACGAAAUCUUGAGAUCGGGCGUUCGACUCGCCCCCGGGAGAUUUUUUCCUCGAGCAA [U16G U22G C27G C34U U35G] has a nonsense suppression of at most 0.026.
Work on CUCUCGGUAGCCAAGGUGGUUUAAGGCUCAAGACUUUAAUUUAUCACUACGAAAUCUUGAGAUCGGGCGUUCGACACGCCCCCGGGAGAUUUUUUCCUCGAGCAA [U16G G28U U76A] yielded a nonsense suppression of at most 0.026.
With CUCUCGGUAGCCAAGGUGGUUUAAGGCGCAAGACUUUAAUUUAUCACUACGAAAUCUUGAGAUCGGGCGUUCGACGCGCCCCCGGCAGAUUUUUUCCUCGAGCAA [U16G U76G G86C] the nonsense suppression was at most 0.026.
With CUCUCGGUAGCCAAGGUGGUUUAAGGCGCAACACUUUAAUUUAUCACUACGAAAUCUUGAGAUCGGGCGUUCGACUCGCCUCCGGGAGAUUUUUUCCUCGAGCAA [U16G G32C C81U] the nonsense suppression was at most 0.026.
Work on CUCUCGGUAGCCAAGGUGGUUUAAGGCGCAAGACUUUAAUUUAUCACUACGAAAGCUUGAGAUCGGGCGUUCGACACGCCCCCGGGAGAUUUUUUCCUCGAGCAA [U16G U55G U76A] yielded a nonsense suppression of at most 0.026.
In the case of CUCUCGGUAGCCAAGGUGGCUUAAGGCGCAAGACGUUAAUUUAUCACUACGAAAUCUUGAGAUCGGGCGUUCGACGCGUCCCCGGGAGAUUUUUUCCUCGAGCAA [U16G U20C U35G U76G C79U], the nonsense suppression is reported as at most 0.026.
In the case of CUCUCGGUAGCCAAGUAGGUUUAAGGCGCAAGACUUUAAUUUAUCACUACGAAAUCUUGAGAUCGGGCGUUCGACUCGCACCCGGGAGAUUUUUUCCUCGAGCAA [U17A C80A], the nonsense suppression is reported as at most 0.026.
CUCUCGGUAGCCAAGGUGGUCUAAGGCGCAAGACUUUAAUUUAUCACUACGAAAUCUUGAGAUCGGGCGUUCGACUCACCCCCGCGAGAUUUUUUCCUCGAGCAA [U16G U21C G78A G85C] showed a nonsense suppression of at most 0.026.
CUCUCGGUAGCCAAGUAGGUUUAAGGCGCAAGCCUUUAAUUUAUCACUACGAAAUCUUGAGAUCGGGCGUUCGACCCGAUCCCGGGAGAUUUUUUCCUCGAGCAA [U17A A33C U76C C79A C80U] gave a nonsense suppression of at most 0.026.
With CUCUCGGUAGCCAAGUAGGUUUAAGGCGUAAGACUUUAAUUUAUCACUACGAAAUCUUGAGAUCGGGCGUUCGACUCGCCCCCGGGAGAUUUUUUCCUCGAGCAA [U17A C29U] the nonsense suppression was 1.15.
CUCUCGGUAGCCAAGUAGGUUUAAGGCGCAAGACUUUAAUUUAUCACUACGAAAUCUUGAGAUCGGGCGUUCGAUUCGCCCCCGGGAGCUUUUUUCCUCGAGCAA [U17A C75U A89C] showed a nonsense suppression of at most 0.026.
CUCUCGGUAGCCAAGGUGGAUUAAGGCGCAAGACUUUAAUUUAUCACUACGAAAUCUUGAGAUCGGCCGUUCGACUCGCCCCCUGGAGAUUUUUUCCUCGAGCAA [U16G U20A G67C G84U] gave a nonsense suppression of at most 0.026.
Variant CUCUCGGUAGCCAAGGUGGUUUAAGGCGCAAGACUUUAAUUUAUCACUACGAAAUCAUGAGAUCGGGCGUUCGACUCGCCCCCGGGAGAUUUUUUCCUCGAGCAA [U16G U57A] has a nonsense suppression of at most 0.026.
For CUCUCGGUAGCCAAGUAGGUUUUAGGCGCAAGACUUUAAUUUAUCACUACGAAAUCUUGAGAUCGGGCGUUCGACUCGCCCCCAGGAGAUUUUUUCCUCGAGCAA [U17A A23U G84A], the nonsense suppression was at most 0.026.
With CUCUCGGUAGCCAAGGCGGUUUAAGGCGCAAGACUUUAAUUUAUCACUACGAAAUCUUGAGAUCGGGCGUUAGACUCGCCCCCGGGAGAUUUUUUCCUCGAGCAA [U16G U17C C72A] the nonsense suppression was 0.27.
Variant CUCUCGGUAGCCAAGGUGGUUUAAGGCGCAAGACUUUAAUUUAUCACUACGAAAUCUUCAGAUCGGGAGUUCGACUCGCCCCCGGGAGAUUUUUUCCUCGAGCAA [U16G G59C C68A] has a nonsense suppression of at most 0.026.
